Assay results published in PubChem BioAssay AID360 (National Center for Advancing Translational Sciences (NCATS), 2006).
In all, about 48,000 compounds went through this assay and about 550 (1.1%) were called active. Not shown: some 4% with an inconclusive outcome. No stated cut-off is given here; in the data, active means potency below about 15 µM; inconclusive means mostly about 16 µM to 33 µM; inactive means weaker than that. Some of the results follow.

Biological target: Lysosomal acid glucosylceramidase (Homo sapiens) (UniProt P04062)
UniProt P04062, sequence (P04062 whole entry, looked up): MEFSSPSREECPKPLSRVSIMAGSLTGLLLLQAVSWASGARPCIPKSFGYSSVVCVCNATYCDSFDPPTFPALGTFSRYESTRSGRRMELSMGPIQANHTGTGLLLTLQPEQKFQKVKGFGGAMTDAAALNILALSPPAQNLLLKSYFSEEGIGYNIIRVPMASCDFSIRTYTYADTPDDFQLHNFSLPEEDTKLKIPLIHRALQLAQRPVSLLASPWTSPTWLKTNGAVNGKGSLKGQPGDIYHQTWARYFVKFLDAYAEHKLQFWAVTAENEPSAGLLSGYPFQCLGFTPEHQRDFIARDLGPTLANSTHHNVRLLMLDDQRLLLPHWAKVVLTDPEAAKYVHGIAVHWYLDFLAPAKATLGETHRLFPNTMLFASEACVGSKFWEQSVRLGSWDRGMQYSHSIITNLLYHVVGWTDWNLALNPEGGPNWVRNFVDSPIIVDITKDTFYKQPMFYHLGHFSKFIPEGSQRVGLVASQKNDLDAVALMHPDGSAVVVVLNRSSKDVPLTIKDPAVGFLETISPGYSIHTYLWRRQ
Assay: Glucocerebrosidase;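 further: the screen sought inhibitors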
Conditions: purified enzyme, resorufin glucoside fluorescence (screen aimed at inhibitors), 20 min; series mostly up to 77 µM
In short: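 Wild-type enzyme at 0.2 nM final in 50mM citric acid/KH2PO4, 10mM sodium taurocholate, 0.01% tween-20, pH 5.9, with resorufin beta-D-glucopyranoside at 30 uM final. Compounds titrated, 20 min at RT, red fluorescence read; AC50 from titration.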
Potency means the concentration at half of the fitted maximal effect.

Potency, inactive:
Cc1cc(NC(=O)NC2CCCN2S(=O)(=O)c2ccc(Cl)cc2)no1 (stereo not given) > 76.9 µM
CC(=O)Nc1cccc(-c2nnc(SCc3ccccc3C#N)n2C)c1 > 76.9 µM
CCN(CC)C(=O)Cn1cnc2ccccc2c1=O > 76.9 µM
O=C(NCCCN1CCN(Cc2ccccc2)CC1)c1nnc(Cc2c(F)cccc2Cl)o1 > 76.9 µM
O=C(Nc1nccs1)C(NS(=O)(=O)c1ccc(Br)s1)c1ccccc1 (stereo not given) > 76.9 µM
CCOC(=O)CC(=O)CSc1nc(C)cc(-c2cccnc2)c1C#N > 76.9 µM
O=C(CS(=O)(=O)Cc1ccccc1)N1CCc2ccccc2C1 > 76.9 µM
CN(Cc1nc2ccccc2n1C)S(=O)(=O)c1ccc(Cl)cc1 > 76.9 µM
O=C(Nc1ccc2c(c1)OC1(CCCC1)O2)C1CC1
CCN1CCN(C(c2cccs2)C(C)NC(=O)c2ccccc2F)CC1 (stereo not given) > 76.9 µM
CCc1ccc(OC)c(S(=O)(=O)Nc2ccccc2C)c1 > 76.9 µM
CCN(CCCNC(=O)C1CCN(S(=O)(=O)CC)CC1)c1ccccc1 > 76.9 µM
Nc1cccc2cnccc12 > 76.9 µM
COc1ccc(NC(=O)N(Cc2cc3cc(OC)ccc3[nH]c2=O)CC2CCCO2)cc1 (stereo not given) > 76.9 µM
O=C(Nc1ccc(CN2CCCCC2)cc1)c1ccc(Br)o1 > 76.9 µM
COc1cccc(Oc2cnc(N)nc2-c2ccc(OC)cc2O)c1 > 76.9 µM
O=C(OCC(=O)N1CCCCC1)c1cc2ccccc2cc1O > 76.9 µM
O=C(C(NS(=O)(=O)c1cccs1)c1ccccc1)N1CCN(c2ccccc2)CC1 (stereo not given) > 76.9 µM
Cc1ccc(N2CCN(C(=O)N3CCCC3)CC2)cc1Cl > 76.9 µM
C=C(Cl)COC(=O)[C@H]1C2C=CC(C2)C1C(=O)O (stereo not given in full) > 76.9 µM
O=C(Nc1nccs1)c1ccc(CSc2nnnn2-c2ccccc2)cc1 > 76.9 µM
COCCCn1c(-c2ccc(OC)cc2)nc2nc3ccccc3nc21 > 76.9 µM
COc1ccc(CCNC(=O)c2cc(-c3cc(C)c(C)cc3O)n[nH]2)cc1OC > 76.9 µM
CCc1ccc2c(COn3nnc4ccc(S(=O)(=O)N(C)C)cc43)cc(=O)oc2c1 > 76.9 µM
Cn1nnnc1SCCNCc1cccc2ccccc12 > 76.9 µM
CC1CCCN(CC(=O)Nc2ccc(S(=O)(=O)NC3CCCCC3)cc2)C1 (stereo not given)
COc1ccc(CC(=O)Nc2c3c(nn2-c2cccc(C)c2C)CS(=O)C3)cc1OC (stereo not given) > 76.9 µM
CC1CC(N(C(=O)c2ccco2)c2ccccc2)c2ccccc2N1 (stereo not given) > 76.9 µM
CCOC(=O)c1oc2c(CN3CCCCC3C)c(O)ccc2c(=O)c1-c1ccc(OC)c(OC)c1 (stereo not given) > 76.9 µM
CC(C)c1ccccc1NC(=O)c1ccco1 > 76.9 µM
COCCn1c(SCC(=O)NCCc2ccccc2)nnc1-c1ccco1 > 76.9 µM
O=C(Nn1cnnc1)c1cc(-c2ccccn2)nc2ccccc12 > 76.9 µM
O=C(Cn1nnc2c(cnn2-c2ccccc2)c1=O)NCc1cccs1 > 76.9 µM
O=C1CCCCCC1C1(O)C(=O)Nc2ccc(Br)cc21 (stereo not given) > 76.9 µM
COc1cc2c(cc1OC)CN(C(=O)COc1ccc(C)c(C)c1)CC2 > 76.9 µM
CCSc1nnc(NC(=O)CCNS(=O)(=O)c2cc(Br)cnc2N)s1 > 76.9 µM
c1csc(-c2cnc3ccccc3n2)c1 > 76.9 µM
CCCCCN(C(=O)NC(=O)NCCCC)S(C)(=O)=O > 76.9 µM
Cc1cnc(C(=O)OCC(=O)Nc2ccc(Cl)cc2Cl)cn1 > 76.9 µM
COc1cc(-c2nnc(COC(=O)C3c4ccccc4Oc4ccccc43)o2)cc(OC)c1OC > 76.9 µM
NCCCCCc1nnc(SCc2cccc(Cl)c2)o1
Cc1cccn2c(=O)c3cc(C(=O)N4CCc5ccccc54)n(C)c3nc12 > 76.9 µM
C=CCn1c(SCn2nnc3ccccc3c2=O)nnc1-c1ccc(F)cc1 > 76.9 µM
C=C(C)C1Cc2nc(N)nc(C)c2C1 (stereo not given) > 76.9 µM
CC1CCN(C(=O)c2ccc(C(=O)N3CCC(C)CC3)cc2)CC1 > 76.9 µM
O=c1cc(CSc2nnnn2-c2ccccc2)nc2nc[nH]n12 > 76.9 µM
CN1C(=O)C(=C2CCCCCC2)SC1=S > 76.9 µM
COc1ccc(C2C(C#N)=C(N)Oc3cc4c(cc32)OCO4)cc1 (stereo not given) > 76.9 µM
CCOC(=O)N1CCN(C(=O)C2CCN(S(C)(=O)=O)CC2)CC1 > 76.9 µM
CC1CCN(C(=O)c2cc(-c3ccc(Cl)c(Cl)c3)on2)CC1 > 76.9 µM
COC(=O)[C@H](C(C)C)n1c(C)c(C(C)=O)c(C(C)=O)c1C
COCCCNC(=O)C12CCC(C)(C(=O)C1)C2(C)C (stereo not given) > 76.9 µM
CC1=C2C(=O)OC(c3ccoc3)C2(C)CCC1 (stereo not given) > 76.9 µM
O=C(c1ccccc1C(=O)N1CCN(c2ccccc2)CC1)N1CCN(c2ccccc2)CC1 > 76.9 µM
Cc1ccc(C=NCc2ccncc2)c(O)c1 > 76.9 µM
COc1cc(NC(=O)Cc2cccs2)ccc1-n1cnnn1 > 76.9 µM
O=C(COC(=O)CNC(=O)c1ccco1)NCCN1C(=O)CSC1=O > 76.9 µM
Cc1cc(NC(=O)CSc2nc3ccccc3n2CC(=O)N2CC(C)CC(C)C2)no1 (stereo not given) > 76.9 µM
CCOc1cc2[nH]c(=O)n(CCCCC(=O)NCc3ccco3)c(=O)c2cc1OCC > 76.9 µM
COc1cccc(NC(=O)CSc2nnc(-c3cc(-c4ccccn4)nc4ccccc34)o2)c1 > 76.9 µM
